The whole screen tested about 350,000 compounds, of which about 260 (0.074%) were called active. Inconclusive results, whose numbers are uncertain, are shown with a selection of clear calls. The call rests on the fitted dose curve; in most records, active means well fitted inhibition curve with a large enough effect; inconclusive means small, poorly fitted or top-dose-only effect; inactive means no such curve, though single readings can be large or run the other way. Potencies of inconclusive entries are doubtful fits and often do not repeat.
molecular target: Ferritin light chain (Equus caballus) (UniProt P02791); experiment: qHTS Assay for Identification of Novel General Anesthetics; conditions: apoferritin/1-aminoanthracene competitive binding, fluorescence; activity change, negative = displacement: at 77.5 µM (top of the series); further: nearly all actives have a fitted effect of over 20% in size
Chain of UniProt P02791 (P02791 whole entry, looked up): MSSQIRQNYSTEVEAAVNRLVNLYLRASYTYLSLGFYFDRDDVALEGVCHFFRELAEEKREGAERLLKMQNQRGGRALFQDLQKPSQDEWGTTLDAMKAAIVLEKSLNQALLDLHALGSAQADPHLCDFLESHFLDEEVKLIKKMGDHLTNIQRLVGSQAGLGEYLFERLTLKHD
How it was run: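 In PBS, apoferritin at 10 uM is loaded with 1-AMA from a 50% saturated solution. After 10 min of compound exposure at ambient temperature, reduced 535 nm fluorescence indicates probe displacement.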
On the % scale 0 is the no-effect control and ±100 the full control effect; potency means the concentration at half of the fitted maximal effect; tags describe the fitted curve by direction and shape.

Potency, inactive:
c1ccc2[nH]c(-c3ccnc4ccccc34)nc2c1

Potency, inconclusive:
c1ccc(CSc2nnc(-c3cccs3)o2)cc1 25.1 µM [inhibitor, partial curve]
Cc1ccccc1OCCN1C(=O)c2ccccc2C1=O 35.5 µM [inhibitor, partial curve]
Cc1ccc(OC(=O)c2cc(-c3ccc4c(c3)OCCO4)on2)c(C)c1 28.2 µM [inhibitor, partial curve]
COC(=O)c1ccc(C(=O)OC)c(NC(=O)CN(c2ccc3c(c2)OCO3)S(C)(=O)=O)c1 14.1 µM [inhibitor, partial curve]
CCCCN(CC)C(=O)c1oc2ccc(S(=O)(=O)N3CCCC3)cc2c1C 15.8 µM [inhibitor, partial curve]
O=C1NC(=NCc2ccccc2)S/C1=C/c1ccc(O)cc1 35.5 µM [inhibitor, partial curve]
CC(C)(C)CC(=O)Nc1cccc2c1CCCC2 20 µM [inhibitor, partial curve]
CCN(CC)c1ccc(/C=N/N2C(=O)c3ccccc3C2=O)cc1 50.1 µM [inhibitor, single point]
CC(C)(C)c1ccc(C(=O)c2c[nH]c(C(=O)NCCCn3ccnc3)c2)cc1 39.8 µM [inhibitor, partial curve]
Cc1ccccc1Cn1c(C)cc(C)c(C#N)c1=O 6.31 µM [inhibitor, full curve]
COc1ccc(/C=C2\CCc3ccccc3C2=O)cc1Cn1cccn1 31.6 µM [inhibitor, partial curve]
O=C(Nc1ccc(Cc2ccncc2)cc1)c1ccc(S(=O)(=O)N2CCOCC2)cc1 39.8 µM [inhibitor, partial curve]
COc1ccc(N2CCN(C(=O)Cn3cnc4nc5c(cc4c3=O)CCCC5)CC2)cc1 31.6 µM [inhibitor, partial curve]
CN(Cc1ccccc1)c1nc(N)c([N+](=O)[O-])c(Nc2cccc(F)c2)n1 8.91 µM [inhibitor, partial curve]
CC(=O)c1cccc(OCC(=O)c2cc(C)n(-c3cc(C)on3)c2C)c1 28.2 µM [inhibitor, partial curve]
Cc1cc(C)n(S(=O)(=O)c2cc(Cl)ccc2Cl)n1 50.1 µM [inhibitor, partial curve]
Cc1cc(=O)[nH]c(SCCCOc2ccc3c(c2)CCC3)n1 20 µM [inhibitor, partial curve, poor fit]
Cc1ccc(NC(=O)N2CCCN(Cc3ccc(F)cc3)C2)cc1C 39.8 µM [inhibitor, partial curve, poor fit]
COc1cccc(-c2nc(NCc3ccco3)c3ccccc3n2)c1O 3.55 µM [inhibitor, full curve, poor fit]
COc1ccc(OC)c(NC(=O)CSc2c3c(nc4ccccc24)CCCC3)c1 31.6 µM [inhibitor, partial curve]
CCOc1ccc(C(=O)N/N=C(\c2ccccc2)c2ccccn2)cc1 20 µM [inhibitor, partial curve]
O=C(Nc1cccc(-n2cnnn2)c1)c1ccoc1COc1ccc(Cl)cc1 3.55 µM [inhibitor, full curve, poor fit]
Cc1ccccc1NC(=O)CSc1nnc(-c2ccccc2)n1-c1ccccc1 17.8 µM [inhibitor, partial curve]
CC(C)(C)C(=O)COC(=O)c1cccc(NC(=O)c2ccco2)c1 44.7 µM [inhibitor, partial curve]
CCOC(=O)c1c(C)[nH]c(N=Nc2ccccc2C)c1C 35.5 µM [inhibitor, partial curve]
ClCC1CSC(=NC23CC4CC(CC(C4)C2)C3)O1 (configuration not stated) 20 µM [inhibitor, partial curve]
Cc1ccc(OCc2ccc(C(=O)NCc3cccnc3)cc2)cc1C 25.1 µM [inhibitor, partial curve]
COc1ccc(NC(=O)/C(C#N)=C/c2ccc(-c3ccccc3C(=O)O)o2)cc1 35.5 µM [inhibitor, single point]
Cc1ccccc1OCc1ccc(-c2nc(C#N)c(NCCCN(C)C)o2)o1 28.2 µM [inhibitor, partial curve]
Cc1ccc(C(=O)Nc2ccc(Cl)c(-c3nc4ncccc4o3)c2)c(C)c1 7.94 µM [inhibitor, partial curve]
CCOC(=O)C1C(C)N=C2SCC(=O)N2C1c1cccc(Br)c1 (configuration not stated) 20 µM [inhibitor, partial curve]

Activity change, negative = displacement, inactive:
O=C1/C(=C/c2ccccn2)COc2ccccc21 -15.6%
CCOC(=O)OCC1OC(c2ccccc2)C=CC1Oc1ccc2oc(=O)cc(C)c2c1 (configuration not stated) 6.46% [at 15.3 µM]
CC(=O)c1cccc(NC(=O)C2C3C=CC(C4CC34)C2C(=O)O)c1 (configuration not stated) -12.7%
N#Cc1ccccc1NC(=S)NC(=O)c1cccnc1 -2.05%
Cc1cccc(C)c1NC(=O)CN1C(=O)S/C(=C\c2cccn2-c2cccc(C(=O)O)c2)C1=O -8.23%
Cc1ccccc1NC(=O)C1CC(=O)N(c2ccccc2F)C1 (configuration not stated) 15.7%
COC(=O)C/C=C\[C@@H](C)[C@@H](/C=N\O[C@@H]1O[C@H](COC(C)=O)[C@H](OC(C)=O)[C@H](OC(C)=O)[C@H]1OC(C)=O)OC -2.68% [at 15.3 µM]
CCOC(=O)c1cn(CC(=O)Nc2cccc(Cl)c2)nn1 -0.0513%
COc1cccc(-c2nc(-c3ccc(-c4ccccc4)nc3OC)no2)c1 -7.98%
CCN(CC(=O)Nc1ccc(NC(C)=O)cc1)CC(=O)Nc1ccc(Cl)c(Cl)c1 -0.964%

From PubChem BioAssay AID485281 (National Center for Advancing Translational Sciences (NCATS), 2010)
